Test results taken from the supplement of paper PMC12217912.
The other results are listed elsewhere or left out. Sequences were assembled here from the parent chain. Inactive controls read about 0.05.

B1: TEV protease; numbered along this chain (parent)
chain: MGESLFKGPRDYNPISSSICHLTNESDGHTTSLYGIGFGPFIITNKHLFRRNNGTLVVQSLHGVFKVKDTTTLQQHLVDGRDMIIIRMPKDFPPFPQKLKFREPQREERICLVTTNFQTKSMSSMVSDTSCTFPSGDGIFWKHWIQTKDGQCGSPLVSTRDGFIVGIHSASNFTNTNNYFTSVPKNFMELLTNQEAQQWVSGWRLNADSVLWGGHKVFMVKPEEPFQPVKEATQL

Variants of: B1
Assay: raw area under fraction-flipped curve 0-4 h after induction (AUC4h, not background-subtracted), DNA-recorder readout of cleavage of the substrate (dimensionless); higher = more cleavage of the substrate by the protease variant
Details: temperature: 34 °C; time window: 0-4 h after rhamnose induction
Protocol: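 In vivo DNA recorder in E. coli TOP10(DE3) ΔrhaA at 34 °C. Each TEVp single-site mutant (parent TEVp 0) is paired with a single-site variant of the 7-mer TEVs (canonical ENLYFQ|S). The substrate sits between flexible linkers in a Bxb1-sfGFP-TEVs-SsrA fusion, so cleavage stabilises Bxb1 and speeds flipping of a recombination array, read by NGS. The value is the raw area under the fraction-flipped curve over 0-4 h after rhamnose induction (AUC4h), with ≥20 reads per time point. It is not background-subtracted; inactive controls average about 0.047.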
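Note: Bxb1 expression induced with 0.2% (w/v) L-rhamnose at OD600 near 0.5, cultures sampled hourly, flipped fraction per protease–substrate barcode pair counted by paired-end Illumina sequencing.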

Variant | area with substrate ENLAFQS | area with substrate ENLFFQS | area with substrate ENLHFQS | area with substrate ENLIFQS | area with substrate ENLKFQS | area with substrate ENLMFQS | area with substrate ENLPFQS | area with substrate ENLQFQS | area with substrate ENLCFQS | area with substrate ENLDFQS | area with substrate ENLLFQS | area with substrate ENLNFQS | area with substrate ENLRFQS | area with substrate ENLSFQS | area with substrate ENLVFQS | area with substrate ENLWFQS | area with substrate ENLEFQS | area with substrate ENLGFQS | area with substrate ENLTFQS
MGESLFKGPRDNNPISSSICHLTNESDGHTTSLYGIGFGPFIITNKHLFRRNNGTLVVQSLHGVFKVKDTTTLQQHLVDGRDMIIIRMPKDFPPFPQKLKFREPQREERICLVTTNFQTKSMSSMVSDTSCTFPSGDGIFWKHWIQTKDGQCGSPLVSTRDGFIVGIHSASNFTNTNNYFTSVPKNFMELLTNQEAQQWVSGWRLNADSVLWGGHKVFMVKPEEPFQPVKEATQL [Y12N] | 0.0758 | 0.0987 | 0.0608 | 0.0682 | 0.0684 | 0.0843 | 0.0666 | 0.0526 |  |  |  |  |  |  |  |  |  |  | 
MGESLFKGPRDMNPISSSICHLTNESDGHTTSLYGIGFGPFIITNKHLFRRNNGTLVVQSLHGVFKVKDTTTLQQHLVDGRDMIIIRMPKDFPPFPQKLKFREPQREERICLVTTNFQTKSMSSMVSDTSCTFPSGDGIFWKHWIQTKDGQCGSPLVSTRDGFIVGIHSASNFTNTNNYFTSVPKNFMELLTNQEAQQWVSGWRLNADSVLWGGHKVFMVKPEEPFQPVKEATQL [Y12M] | 0.0592 | 0.0871 | 0.0673 |  | 0.0771 |  | 0.075 | 0.0698 | 0.0643 | 0.0545 | 0.0728 | 0.0623 | 0.0747 | 0.0655 | 0.0851 | 0.0579 |  |  | 
MGESLFKGPRDCNPISSSICHLTNESDGHTTSLYGIGFGPFIITNKHLFRRNNGTLVVQSLHGVFKVKDTTTLQQHLVDGRDMIIIRMPKDFPPFPQKLKFREPQREERICLVTTNFQTKSMSSMVSDTSCTFPSGDGIFWKHWIQTKDGQCGSPLVSTRDGFIVGIHSASNFTNTNNYFTSVPKNFMELLTNQEAQQWVSGWRLNADSVLWGGHKVFMVKPEEPFQPVKEATQL [Y12C] | 0.0755 | 0.078 | 0.057 | 0.0932 | 0.0791 | 0.0698 | 0.059 | 0.0716 |  | 0.0617 | 0.0695 | 0.0696 | 0.0843 | 0.0597 |  | 0.0376 |  |  | 
MGESLFKGPRDYNPISSSICHHTNESDGHTTSLYGIGFGPFIITNKHLFRRNNGTLVVQSLHGVFKVKDTTTLQQHLVDGRDMIIIRMPKDFPPFPQKLKFREPQREERICLVTTNFQTKSMSSMVSDTSCTFPSGDGIFWKHWIQTKDGQCGSPLVSTRDGFIVGIHSASNFTNTNNYFTSVPKNFMELLTNQEAQQWVSGWRLNADSVLWGGHKVFMVKPEEPFQPVKEATQL [L22H] | 0.0525 | 0.0488 | 0.0476 | 0.0572 | 0.0486 | 0.0502 | 0.0532 | 0.0477 | 0.0545 | 0.0439 | 0.0443 | 0.0509 | 0.0404 | 0.0532 |  | 0.0367 | 0.0678 | 0.0555 | 
MGESLFKGPDDYNPISSSICHLTNESDGHTTSLYGIGFGPFIITNKHLFRRNNGTLVVQSLHGVFKVKDTTTLQQHLVDGRDMIIIRMPKDFPPFPQKLKFREPQREERICLVTTNFQTKSMSSMVSDTSCTFPSGDGIFWKHWIQTKDGQCGSPLVSTRDGFIVGIHSASNFTNTNNYFTSVPKNFMELLTNQEAQQWVSGWRLNADSVLWGGHKVFMVKPEEPFQPVKEATQL [R10D] | 0.0772 | 0.0774 | 0.0692 | 0.083 |  |  | 0.0587 | 0.0638 | 0.0659 | 0.0509 |  | 0.0691 |  | 0.0638 | 0.0783 | 0.0497 | 0.0611 | 0.0562 | 
MGESLFKGPWDYNPISSSICHLTNESDGHTTSLYGIGFGPFIITNKHLFRRNNGTLVVQSLHGVFKVKDTTTLQQHLVDGRDMIIIRMPKDFPPFPQKLKFREPQREERICLVTTNFQTKSMSSMVSDTSCTFPSGDGIFWKHWIQTKDGQCGSPLVSTRDGFIVGIHSASNFTNTNNYFTSVPKNFMELLTNQEAQQWVSGWRLNADSVLWGGHKVFMVKPEEPFQPVKEATQL [R10W] | 0.0628 | 0.0764 | 0.0634 | 0.0796 | 0.0822 | 0.0639 | 0.0665 | 0.0625 | 0.0685 | 0.0648 | 0.0987 | 0.065 | 0.0738 | 0.052 |  |  | 0.0742 | 0.0699 | 
MGESLFKGPRDYNPISSQICHLTNESDGHTTSLYGIGFGPFIITNKHLFRRNNGTLVVQSLHGVFKVKDTTTLQQHLVDGRDMIIIRMPKDFPPFPQKLKFREPQREERICLVTTNFQTKSMSSMVSDTSCTFPSGDGIFWKHWIQTKDGQCGSPLVSTRDGFIVGIHSASNFTNTNNYFTSVPKNFMELLTNQEAQQWVSGWRLNADSVLWGGHKVFMVKPEEPFQPVKEATQL [S18Q] | 0.0722 | 0.0926 | 0.0588 | 0.0848 | 0.0934 |  | 0.0505 |  | 0.102 | 0.0956 | 0.0862 | 0.068 | 0.103 | 0.0707 | 0.1 | 0.0734 | 0.0699 | 0.0752 | 
MGESLFKGPRDYNPISSSICVLTNESDGHTTSLYGIGFGPFIITNKHLFRRNNGTLVVQSLHGVFKVKDTTTLQQHLVDGRDMIIIRMPKDFPPFPQKLKFREPQREERICLVTTNFQTKSMSSMVSDTSCTFPSGDGIFWKHWIQTKDGQCGSPLVSTRDGFIVGIHSASNFTNTNNYFTSVPKNFMELLTNQEAQQWVSGWRLNADSVLWGGHKVFMVKPEEPFQPVKEATQL [H21V] | 0.0554 | 0.0659 | 0.0656 | 0.0741 | 0.0778 |  | 0.0549 | 0.0582 | 0.0674 | 0.0542 |  | 0.0614 | 0.0723 |  | 0.0784 | 0.0695 | 0.0671 | 0.0694 | 0.0469
MGESLFKGPRPYNPISSSICHLTNESDGHTTSLYGIGFGPFIITNKHLFRRNNGTLVVQSLHGVFKVKDTTTLQQHLVDGRDMIIIRMPKDFPPFPQKLKFREPQREERICLVTTNFQTKSMSSMVSDTSCTFPSGDGIFWKHWIQTKDGQCGSPLVSTRDGFIVGIHSASNFTNTNNYFTSVPKNFMELLTNQEAQQWVSGWRLNADSVLWGGHKVFMVKPEEPFQPVKEATQL [D11P] | 0.0683 | 0.0724 | 0.0708 | 0.0799 | 0.0608 |  | 0.0603 | 0.0629 |  | 0.0674 | 0.0678 | 0.0709 | 0.0899 | 0.054 | 0.0708 |  | 0.0814 |  | 
